We go through 45 sequences from the supplement of paper PMC11417369.

The other results are listed elsewhere or left out.

The assay has as its system PfHDP1 homeodomain (GST-tagged). Nature of the assay: gcPBM binding intensity (ln(normalized median fluorescence intensity)); higher = stronger DNA binding. Summed up:
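The binding buffer was 1× PBS containing 1% milk, 0.2 mg/ml BSA, 0.5% salmon testes DNA and 0.03% Triton X-100. In it, GST-tagged P. falciparum DNA-binding domains expressed in E. coli were applied for 1 h to an Agilent 4 × 180k array of primer-extended double-stranded 36-bp intergenic genomic probes plus negative controls. Binding intensity, read with Alexa488 anti-GST antibody and a 488 nm scan, is the highest Masliner-normalised natural-log median intensity across replicate spots of either probe orientation.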
In the case of “CAAAGAACTTATAGGGTGCTTTACTTATAAGTAAAT [GTGCAC_site9579]”, the “gcPBM binding intensity (ln)” value was found to be 6.12.
As for “ATATAAAGTATGTTAGTGCACTTTTTTTTTTTTTTT [GTGCAC_site9419]”, the “gcPBM binding intensity (ln)” value is 10.4.
The same measure for “TCATAGGAGAACTTTTGTACAGATTTTTCTTTTTTT [XGTACX_site2853]”: 6.19.
In the case of “GTAATACACATATAATGTACTCATAAATATATTTAT [XGTACX_site4041]” it was 7.28.
For the sequence “ATGTTAACTAAATGTACACACCTATGTTGATGTAAC [CACACA_site5073]”, the “gcPBM binding intensity (ln)” value is 6.69.
“AAAGTTTAAATGAGAAGTACAAATTTTTGTTTTTAT [XGTACX_site1844]”: the “gcPBM binding intensity (ln)” value was 6.1.
The same measure for “TATATATATAAAATATGTACATAAAATTATTTATTT [XGTACX_site7666]”: 6.88; for “AATAATATATATATATATATATATAGATATGTATAT [GTGCAC_negctrl_site653]”: 7.08; for “AGCAAAAATTAAATAAATAAATATATATATATATAT [TGCATGCA_negctrl_site449]”: 9.15.
As for “ATATTAATAATATATACACACATAAGTATTGTATAT [CACACA_site4095]”, the “gcPBM binding intensity (ln)” value turned out to be 6.46.
As for “GCAACATTCTAAGACACACACACACCCATATATATA [CACACA_site1053]”, the “gcPBM binding intensity (ln)” value was 7.02.
The same measure for “AATGATGTCATAGGGGGTACACATAAATGTGAATGT [XGTACX_site6745]”: 6.92; for “TTACTACTATATTATACACACATATATATATATATA [CACACA_site2621]”: 9.34.
For “TTAAAAGAAAAAATATGTACATATATTATATATATC [XGTACX_site7009]”, the “gcPBM binding intensity (ln)” value is 6.51.
For “TGTGAATAAATAAGCACACATAAACACATATATAAA [CACACA_site6114]”, the “gcPBM binding intensity (ln)” value was determined as 6.89.
In the case of “TTTATTTATGTAGATACACACCCATGTTATATGGAG [CACACA_site9144]”, the “gcPBM binding intensity (ln)” value is 6.43.
Regarding “TTCTAATATTTTTGCACACTAAACAATAAATTTCCT [CACACA_site3944]”, the “gcPBM binding intensity (ln)” value worked out at 10.1.
The same measure for “TATACATAGAAACACACACACATATATATATATATA [CACACA_site2248]”: 9.33; for “GTTTATTCTTTTTATACACACCTTATTTGATTAACA [CACACA_site4567]”: 6.93.
The same measure for “AATATTCAATATATATATATATATAATATTAATATA [GTGCAC_negctrl_site571]”: 6.4; for “TAATACCATAACAAGTGTACATAAATAATTATTGTA [XGTACX_site4949]”: 6.86.
The same measure for “AAGGATTTTTTATACACACACTAACTAATGTATATA [CACACA_site7163]”: 6.54.
Consider “ATATTTTATTTAATTACACACAATATTGCAATTTGT [CACACA_site669]”, for which the “gcPBM binding intensity (ln)” value came out at 8.74.
With “TATATTACTTTGTGTTGTACGGAAATATATATATAT [XGTACX_site4309]”, the “gcPBM binding intensity (ln)” value stood at 8.93.
As for “TCTTCTAATTTACCTACACACAGGAGATATATAAAT [CACACA_site6276]”, the “gcPBM binding intensity (ln)” value was found to be 6.74.
In the case of TAATTAATTTATTAGTTGCACTGTACCATTAGAGTA, the “gcPBM binding intensity (ln)” value amounted to 7.85.
“GTTCATAAATTAAACACACACACACCCCTGGATACC [CACACA_site3331]”: the “gcPBM binding intensity (ln)” value was found to be 7.41.
As for “TATATATATATATATTGTACAAAATATTTATATGTT [XGTACX_site436]”, the “gcPBM binding intensity (ln)” value came to 9.39.
In the case of “ATCAACATTATGGTTAGTACTTAGTGAATTGTTAAT [XGTACX_site4926]” it was 6.48.
The same measure for “TTATACACCTTTCATTGTACATATAATTTATATTCT [XGTACX_site8685]”: 7.12; for “GTGTAATATATTTTTCGTACATATTATATATATATA [XGTACX_site1675]”: 8.44; for “TTTTTATTGAGATACTTATATAATTTTATGAATAAA [XGTACX_negctrl_site311]”: 6.01.
On to “TTTTTTTGCTCTTTTTATATATATATATATATATAT [GTGCAC_negctrl_site70]”, for which the “gcPBM binding intensity (ln)” value is 9.28.
The same measure for “TTTGAAAAGTTGAAATGTACACATTTACACATATTT [XGTACX_site1641]”: 6.24; for “CTTATATATTGGGATAGTACTTTTAACTAAATAGAA [XGTACX_site5900]”: 6.23; for “TGTTGTATTTTTACAACACACATTTAATCCATTTAA [CACACA_site1507]”: 6.03.
On to “ACTTTACGAATTAAGAGTACTTATTTAAGGAACACT [XGTACX_site7919]”, for which the “gcPBM binding intensity (ln)” value was found to be 6.47.
In the case of “AAATACATATCATGTAGTACATATATATGTAGGTTA [XGTACX_site5392]” it was 6.63; in that of “AAAACTATTAAATGTAGTACATAATTATTGAAATAA [XGTACX_site8716]”, 6.5.
With “ATAATTATTCTTATGGTGCACTGAATATACATGTTG [GTGCAC_site9760]”, the “gcPBM binding intensity (ln)” value worked out at 9.5.
In the case of “ATAGCACATTTTTAAGCACACGTTTATTATATATAT [CACACA_site6084]” it was 6.93.
With “CAAAAATATATTTTTTGTACACAAAAAAAAAATAAA [XGTACX_site5229]”, the “gcPBM binding intensity (ln)” value came to 6.37.
The same measure for “TATACATGTTATGTACATCTAATCACACGTGCAATA [CACACA_negctrl_site1267]”: 9.15; for “TCTTTTTACACCTCTTACATAAAACAAAATAAGGGG [XGTACX_negctrl_site12]”: 7.09; for “TGTATGTTTGGGTGCACACATAAATATTATATATAG [CACACA_site3397]”: 10.2.
